From the supplement of paper PMC11417369
± gives the standard deviation of the averaged measurements. The list shows a part of the results.

tested on: PfAP2-LT AP2 domain (GST-tagged); experiment: gcPBM binding intensity (ln(normalized median fluorescence intensity)); higher = stronger DNA binding
In short: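 Binding intensity is defined as the maximum Masliner-normalised natural-log median intensity across replicate spots for either probe orientation. It was measured on an Agilent 4 × 180k array of primer-extended double-stranded 36-bp intergenic genomic probes and negative controls, to which GST-tagged P. falciparum DNA-binding domains made in E. coli were applied for 1 h in 1× PBS with 1% milk, 0.2 mg/ml BSA, 0.5% salmon testes DNA and 0.03% Triton X-100. Detection was by Alexa488 anti-GST antibody and scanning at 488 nm.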

Sequence | gcPBM binding intensity (ln)
ATAAATAAATAAAAAAGTACATTTCCACTTTTAACA [XGTACX_site81] | 8.52 ± 0.5
CAATATATTATATGGGTGCAAACCACATATAAATAA | 8.77 ± 0.43
TTAGGTATATATAAACGTACTCACAATATCATATAA [XGTACX_site8743] | 8.71 ± 0.45
TTGTCTACAAAAATGTGCTTCTAATCATACGACTTG [CACACA_negctrl_site46] | 8.61 ± 0.43
TACATATATTATTGCACACATATAAAATACCCCCAA [CACACA_site3895] | 9.47 ± 0.15
CAGTTTACTAATATTGCACACGAATATGAAAAAGAG [CACACA_site8941] | 8.99 ± 0.45
TTATCATTTGCCATTGTGCACTTATATGCTCACATT | 9.21 ± 0.44
AAAAAAAATTATGAAGTGCATTAGTGAATTTGATTG | 8.61 ± 0.44
TTTTTTTTTCAAGAGGTGCGTGTATTTTAACAAAAA | 8.37 ± 0.3
TTTTTCACACTTCAAAAGTGTCAACCTTCTATTCTC [TGCATGCA_negctrl_site489] | 8.95 ± 0.45
CACAAATATACAAATACACACAAATATACAAATACA [CACACA_site2385] | 9.42 ± 0.44
GTAAAATTTACATAGAGTACTTATATTTTTTTCTGC [XGTACX_site3414] | 8.6 ± 0.42
TAAAGTGTAAAATTCACACACATATATATATATATA [CACACA_site4883] | 9.975 ± 0.078
ATATTGTAAGTAAACACACACACATATATCTGTATA [CACACA_site4541] | 9.55 ± 0.2
ATTTTTTTTATTATTACACACATATAATAAAAAAAT [CACACA_site1802] | 8.61 ± 0.3
ATTTTTTTTTTCTTTTTTTTTTGTTTTTCTCCTTTT [CACACA_negctrl_site1182] | 8.71 ± 0.54
GTATAATTTATTGAACGTACACATATATATATGTAT [XGTACX_site1395] | 8.92 ± 0.35
AATAAAATGCAATACATTTTGTTATATAATGTTGTT [CACACA_negctrl_site1525] | 8.64 ± 0.4
CACAATGTAGTGTATAAATACAATAAAAGGTTGTAT [CACACA_negctrl_site700] | 9.1 ± 0.47
AAATGTATAGGAATAATAATAAAAAAAAAAAAAAAT [CACACA_negctrl_site1793] | 8.72 ± 0.64

Sequence | gcPBM binding intensity (ln)
ATCATTCCACTTTTCACACATATCTCTATTTCTATC [CACACA_site4723] | 9.15 ± 0.57
AAAAAAAATAAAATAATAAAAATTATGAATATATAT [CACACA_negctrl_site280] | 8.51 ± 0.52
TGGAGGTCAGTTCACAGTACCCAGTAACTCTACGGA [XGTACX_site2549] | 8.64 ± 0.38
ATAGGTAATAATAATACACACGGTGAAATATAGATG [CACACA_site9336] | 9.29 ± 0.44
TATTTCTTATTACATACACACATATACATAGATGAC [CACACA_site5729] | 9.07 ± 0.29
TCTTGTCTACCTTGTATTTAATATTTACATATATAA [TGCATGCA_negctrl_site320] | 8.85 ± 0.45
TATTTGTAAAAATTGTGTACTTAGAAAATTCCAAAA [XGTACX_site6007] | 8.28 ± 0.4
TTCTTGTATATATTTTGTACATATATACCATTTTAG [XGTACX_site2409] | 9.06 ± 0.46
TATATGTTTTTATGTACACACTTTTAACCTAAGAAA [CACACA_site4769] | 8.68 ± 0.38
ATTTATATATAGGTGTGTCCACAAATAGTATGTAAA [XGTACX_site2916] | 9 ± 0.41
GTATATAGTATGTAGAGTACTAATTTCCATATGTTC [XGTACX_site7816] | 8.81 ± 0.44
CAATATTTTCATAGATGTACTTTGGACTTATTATAT [XGTACX_site4849] | 8.73 ± 0.44
GAACGAAATAAGTGTGTGCACATGTAACCACAAATC [GTGCAC_site9829] | 9.71 ± 0.49
AATTAATATATAAATAATAAAAAAAAATATATAAAC [XGTACX_negctrl_site280] | 8.73 ± 0.57
TAAATAAAAGATACGAGTACGTATGATGTTAACCTC [XGTACX_site8840] | 8.96 ± 0.49
CTTATTTAATGTATCACACACGAGAATAAAAAATAA [CACACA_site3020] | 8.84 ± 0.5
TATTTATAAAAATATACACACATACAAATATGCATA [CACACA_site4555] | 8.84 ± 0.33
TATAAGTTGATATATACACACATATATAAATATGTA [CACACA_site7526] | 8.87 ± 0.37
ATGGTTTTCAGAAAAACATGCATACAATAATAAAAA [TGCATGCA_site815] | 8.68 ± 0.52
TTTAAAATAACCAAAAACAAAAAGAAACACAAATGT [GTGCAC_negctrl_site705] | 8.76 ± 0.42

Sequence | gcPBM binding intensity (ln)
TTTCAAATGGAATGTGTGCACATAAATGTAAATAAA | 9.18 ± 0.38
GATCAAATAGAAAATACATGCAATGTGTGAAATAAC [TGCATGCA_site835] | 9.22 ± 0.5
AAAAAAAAAATTTACTGTACACATTTGGGATACTCA [XGTACX_site5191] | 8.61 ± 0.45
TTCATTAAAATTATTACACACAGTTCTTCAACCAAA [CACACA_site3504] | 8.73 ± 0.4
ATATGTAGTTTTTATTGTACGTGTAGAAGAAATAAT [XGTACX_site6608] | 8.8 ± 0.53
TTTTAAACAGGACACACACACATATAGATTTATATA [CACACA_site6560] | 9.52 ± 0.28
AAACTTTTTTTAAAAACACACATATAGATTTATATA [CACACA_site7842] | 8.61 ± 0.43
TAGTTTTTTATATATTGTACAAATGATATATTATAT [XGTACX_site1002] | 8.66 ± 0.4
TATTTTTAAACAAAACTGTATTTATTTTTTAAAATT [CACACA_negctrl_site1449] | 8.16 ± 0.47
TTTTGTTATTTTTGTATGCACTACATATTATTATAT | 9.19 ± 0.54
ATATATATATATAATTGTACATTTTTATGTTTTATA [XGTACX_site4560] | 9.1 ± 0.33
GAAATTAAAAAATTTATGCACACTTTAAAAAAAAAA [CACACA_site3769] | 8.47 ± 0.38
ATGAAAAAAAATAAAAAATATATATATATATATATA [CACACA_negctrl_site236] | 9.4 ± 0.4
TATATTTTAATTTGAAGTACTAATATTTATTTATAT [XGTACX_site7458] | 8.34 ± 0.42
TATAACCATATATACACACACATATAAATATAAATA [CACACA_site7089] | 9.46 ± 0.31
AAGGTGGAAACAATTACACACACACTAAAAAAAAAA [CACACA_site7493] | 9.57 ± 0.45
ATATATATATATTTCGTGCACTGATAATATTATTTT | 9.18 ± 0.37
AAAAAGAGGAAAAAGATAAAGAAATTAAAGGAGAGA [CACACA_negctrl_site423] | 8.73 ± 0.62
